Results taken from PubChem BioAssay AID1345082 (National Center for Advancing Translational Sciences (NCATS), 2018).
Where “and” joins values, the source holds several entries; their conditions need not be identical. Equal values may be shown once. Out of some 94,000 compounds screened, about 4,000 (4.3%) were called active. This list was built around the results that the source calls inconclusive (neither active nor inactive); the mix of calls is not that of the screen. Calls follow the shape of the dose curve; as a rule, active = well fitted inhibition curve with a large enough effect; inconclusive = small, poorly fitted or top-dose-only effect; inactive = no such curve, though single readings can be large or run the other way. Where the call is inconclusive, the potency comes from a doubtful curve fit.

Test: Cytotoxic Profiling in NIH 3T3 Cell Line of Diverse Libraries Using Quantitative High-Throughput Screening; also: nearly all actives have a fitted effect of over 55% in size
Details: NIH 3T3 viability, CellTiter-Glo ATP luminescence, 48-72 h; activity change, negative = cytotoxicity: at 96.7 µM (top of the series) unless noted; series mostly up to 96.7 µM
In short: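 Mouse fibroblast NIH 3T3 cells, 400 per well, received compound via pintool and were incubated for 48 or 72 hr prior to CellTiter-Glo ATP luminescence measurement.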
% is scaled to controls: 0 for no effect and ±100 for the full control effect; potency is read from the fitted curve at half-maximal effect; tags tell the direction and shape of the fitted curve.

| Compound | activity change, negative = cytotoxicity | Potency | outcome |
| --- | --- | --- | --- |
| O=C(NC1=N[C@@]23CO[C@H](c4ccccc4)C[C@@H]2CC(=O)[C@H]3S1)C1CC1 | inactive: -20.2% | – | – |
| CN(Cc1cccc2cnccc12)C(=O)COc1ccc(Cl)cc1Cl | – | inconclusive: 50.1 µM [inhibitor, partial curve, poor fit] | – |
| COc1cc(OC)cc(C(=O)N2CCCC(n3cc(-c4nc(-c5ccccc5)no4)nn3)C2)c1 (stereo not drawn) | – | inconclusive: 20 µM [inhibitor, full curve, poor fit] | – |
| Cc1nn(-c2ccccc2)c2c1C(C)N(C1CCN(C(=O)c3cccc(C(F)(F)F)c3)C1)C2=O (stereo not drawn) | – | inconclusive: 11.2 µM [inhibitor, full curve, poor fit] | – |
| OCC1(Cc2ccc(F)cc2F)CCCN(c2cnc3ccccc3n2)C1 (stereo not drawn) | – | inconclusive: 56.2 µM [inhibitor, partial curve, poor fit] | – |
| CCNC(=O)NC[C@H]1O[C@H](Cc2cc(CN(C)Cc3ccccc3)on2)CC[C@@H]1O | – | inconclusive: 126 µM [inhibitor, single point] | – |
| CCN1C(=O)C2(CCN(S(=O)(=O)Cc3ccc(Cl)cc3)CC2)c2ccccc21 | – | active: 25.1 µM | – |
| COc1ccc(CN2CC3(CCN(S(=O)(=O)Cc4ccccc4F)CC3)C2=O)cc1 | inactive: -32.1% | – | – |
| COc1cccc(C(=O)NC2CCCN(CCn3nc4n(c3=O)CCCC4)C2)c1 (stereo not drawn) | inactive: -16% | – | – |
| CCOC(=O)[C@H]1[C@@H](O)C(=O)N(Cc2ccccc2)C12CCN(C(=O)OCC)CC2 | – | inconclusive: 70.8 µM [inhibitor, single point] | – |
| COc1ccc(NC(=O)N2CCCC(c3noc(COc4ccccc4F)n3)C2)c(C)c1 (stereo not drawn) | – | inconclusive: 50.1 µM [inhibitor, partial curve, poor fit] | – |
| CC(C)c1nccn1C1CN(C(=O)COc2ccccc2)C1 | – | inconclusive: 70.8 µM [inhibitor, partial curve, poor fit] | – |
| CCOc1ccccc1C1NC(=O)N(CC(=O)Nc2c(C)cc(C)cc2C)C2=C1C(=O)OC2 (stereo not drawn) | – | – | inactive |
| O=C1C(N2CCN(S(=O)(=O)c3ccccc3Cl)CC2)CCN1CCc1ccccc1 (stereo not drawn) | – | inconclusive: 50.1 µM [inhibitor, partial curve, poor fit] | – |
| CC(=O)N1CCn2cc(C(=O)Nc3ccc(Cl)cc3Cl)nc2C1 | – | inconclusive: 50.1 µM [inhibitor, partial curve, poor fit] | – |
| Cc1ccc(C)c(C(=O)NC2CCN(c3cc(-c4ccc(F)cc4)[nH]n3)C2)c1 (stereo not drawn) | – | inconclusive: 44.7 µM [inhibitor, partial curve, poor fit] | – |
| Cc1nn(-c2ccccc2)c2c1C(C1CC1)N(C1CN([S+](=O)([O-])c3c(C)noc3C)C1)C2=O (stereo not drawn) | inactive: 0.166% | – | – |
| O=c1cc(-c2ccccn2)oc2c(NCc3ccccc3)nccc12 | – | inconclusive: 11.2 µM [inhibitor, full curve, poor fit] | – |
| O=C(NCC1CCN(c2cc(-c3ccc(Cl)cc3)[nH]n2)CC1)c1cc(C2CC2)[nH]n1 | – | active: 35.5 µM | – |
| Cc1nn(C)cc1CN1CCc2n[nH]c(=O)n2CC1 | inactive: 2.63% | – | – |
| CCc1ccc(NC(=O)c2cc3n(n2)CC(c2ccc(Cl)cc2)OC3)cc1 (stereo not drawn) | – | inconclusive: 35.5 µM [inhibitor, partial curve] | – |

| Compound | activity change, negative = cytotoxicity | Potency | outcome |
| --- | --- | --- | --- |
| O=C(Nc1ccc(Cl)nc1)c1cc2cccnn2n1 | inactive: -24.7% [at 138 µM] | – | – |
| Cc1noc([C@H]2CCN(Cc3cc(F)cc(F)c3)C[C@H]2NC(=O)C2CC2)n1 | – | inconclusive: 50.1 µM [inhibitor, partial curve, poor fit] | – |
| Cc1nn2c(c1-c1ccccc1Oc1ccccc1)N(C(=O)c1cnccn1)CCC2 | – | inconclusive: 112 µM [inhibitor, single point] | – |
| O=C(c1coc(COc2cccc(C(F)(F)F)c2)n1)N1CCCCCCC1 | – | inconclusive: 50.1 µM [inhibitor, partial curve, poor fit] | – |
| O=S(=O)(NCC1CN(CC2CC2)CC12CCCCC2)c1cccc(F)c1 (stereo not drawn) | inactive: -23.9% | – | – |
| COc1cccc(-c2ccc(C(=O)NCCNC(=O)c3c(C)noc3C)cc2)c1 | – | inconclusive: 50.1 µM [inhibitor, partial curve, poor fit] | – |
| O=C1NC(=NC2CCCC2)C2(CCCN(Cc3ccccc3)C2)N1c1cc(F)cc(F)c1 (stereo not drawn) | inactive: 1.7% | – | – |
| C=CCN1C[C@@H]2C[C@@H](C(=O)NC)N(C(=O)CCc3ccccc3)c3cccc(c32)C1=O | – | inconclusive: 35.5 µM [inhibitor, partial curve, poor fit] | – |
| c1cn(-c2ccc(-c3nc(C4CCOC4)no3)cc2)cn1 (stereo not drawn) | inactive: -19.8% | – | – |
| Cc1ccccc1-c1nccc2c(=O)cc(N3CCOCC3)oc12 | – | active: 35.5 µM | – |
| Cc1noc([C@H]2CCN(S(=O)(=O)Cc3ccccc3)C[C@H]2NC(=O)C2CC2)n1 | inactive: -5.11% | – | – |
| COc1ccc(C2Cn3nnc(C(=O)N4CCN(C(=O)c5ccccc5C)CC4)c3CO2)cc1 (stereo not drawn) | inactive: -20.5% | – | – |
| c1ccc(CN2CCNc3cc(-c4cccnc4)ncc3C2)cc1 | inactive: -23.4% [at 138 µM] | – | – |
| COc1ccccc1CC(=O)N1CCCc2ncc(C(=O)NCCc3ccccc3)cc21 | – | inconclusive: 100 µM [inhibitor, partial curve, poor fit] | – |
| CCC(C)(C)C(=O)N1CCC2(CCc3nn(Cc4ccccc4)c(=O)n3CC2)CC1 | – | inconclusive: 50.1 µM [inhibitor, partial curve, poor fit] | – |
| CCNC(=O)N1CCCC(c2noc(COc3ccccc3F)n2)C1 (stereo not drawn) | inactive: -16.6% | – | – |
| COc1ccc(-c2cc(C(=O)Nc3cccc(C(F)(F)F)c3)c3cnn(C)c3n2)cc1 | – | inconclusive: 35.5 µM [inhibitor, partial curve, poor fit] | – |
| O=C(CCC1CCN(S(=O)(=O)c2ccccc2)CC1)NCc1ccccc1 | – | inconclusive: 50.1 µM [inhibitor, partial curve, poor fit] | – |
| O=C(O)C1CCc2sc(C(=O)N3CCCCCC3)cc2C1 (stereo not drawn) | – | inconclusive: 50.1 µM [inhibitor, partial curve, poor fit] | – |
| CCCCn1c(=O)c(C(=O)NCc2ccc(C(F)(F)F)cc2)nc2cccnc21 | – | inconclusive: 50.1 µM [inhibitor, partial curve, poor fit] | – |
| CC#CCN1C(=O)NC(CCc2ccccc2)(C2CCN(Cc3ccccc3-c3ccco3)CC2)C1=O (stereo not drawn) | inactive: -25.6% | – | – |

| Compound | activity change, negative = cytotoxicity | Potency | outcome |
| --- | --- | --- | --- |
| COc1ccc(C(=O)N2CCC3(CC(C(C)C)=NO3)C2)cc1 (stereo not drawn) | inactive: -0.187% | – | – |
| COc1ccccc1N1CCN(CC[C@H]2CN(C(=O)Nc3ccc(C(F)(F)F)cc3)CC[C@H]2CC(=O)O)CC1 | inactive: -2.64% | – | – |
| Cc1ccc(NC(=O)c2nc3sccn3c2-c2ccncc2)cc1 | – | inconclusive: 56.2 µM [inhibitor, partial curve, poor fit] | – |
| COCCCNC(=O)c1ccc2c(c1)CC(=O)N2Cc1ccccc1 | – | inconclusive: 5.62 µM [inhibitor, full curve] | – |
| CN1[C@@H](CCC(=O)N2CCN(c3ccccc3)CC2)CNC(=O)[C@@H]2[C@H]1CCN2Cc1cccc(Cl)c1 | – | inconclusive: 10 µM [inhibitor, full curve, poor fit] | – |
| COc1cccc(CN2C[C@@H]3C(C(=O)O)[C@@H]3C2)c1OCCn1ccnc1 (stereo partly drawn) | – | inconclusive: 100 µM [inhibitor, single point] | – |
| COc1ccccc1Nc1ccnc(N2CCCC(C(=O)NCCc3ccccc3F)C2)n1 (stereo not drawn) | – | inconclusive: 22.4 µM [inhibitor, full curve, poor fit] and inconclusive: 15.8 µM [inhibitor, full curve, poor fit] | – |
| O=C(NCc1ccccc1)NC[C@H]1Cn2c(-c3ccc4c(c3)OCO4)cnc2CO1 | – | inconclusive: 100 µM [inhibitor, partial curve, poor fit] | – |
| CC1=C[C@@H](CN)[C@H](C(C)C)C[C@H]1Cc1nc2ccc(F)cc2[nH]1 | – | active: 100 µM | – |
| COCCN1CCCCCC(O)c2cc(C(=O)N3CCN(c4ccc(F)cc4)CC3)ccc21 (stereo not drawn) | – | inconclusive: 50.1 µM [inhibitor, partial curve, poor fit] | – |
| CC(=O)N(C1CCOCC1)C1CCN(S(=O)(=O)c2ccc(F)c(F)c2)CC1 | inactive: -25.3% | – | – |
| CC(C)c1cccc(NC(=O)CN2C(=O)NC3(CCCCC3)C2=O)c1 | – | inconclusive: 44.7 µM [inhibitor, partial curve, poor fit] | – |
| COc1cccc(C(=O)NC2CCCN(c3cc(-c4ccc(F)cc4)[nH]n3)C2)c1 (stereo not drawn) | – | active: 44.7 µM | – |
| COc1ccc(-c2ccc3ncc(Nc4cccc(C(F)(F)F)c4)n3n2)cn1 | – | inconclusive: 56.2 µM [inhibitor, partial curve, poor fit] | – |
| Cc1ccc(C2Cn3nnc(C(=O)NC4CCCCCC4)c3CO2)cc1 (stereo not drawn) | – | inconclusive: 50.1 µM [inhibitor, partial curve, poor fit] | – |
| CC1=C[C@@H](CN(CC2CC2)CC2CC2)[C@H](C(C)C)C[C@H]1Cc1nc2c(C)cccc2[nH]1 | – | active: 79.4 µM | – |
| Cc1cc(OCC(=O)O)c(C)c2c1CC[C@@H]([C@H](C)C(=O)NCc1ccccc1)C2 | – | active: 79.4 µM | – |
| O=[S+]([O-])(NC1CCCN(c2ccc3nnc(-c4ccccc4)n3n2)C1)c1ccccc1 (stereo not drawn) | – | inconclusive: 39.8 µM [inhibitor, partial curve, poor fit] | – |
| O=C(c1ccccc1F)N1CCC(c2nn(-c3ccccn3)c(=O)[nH]2)CC1 | inactive: -14.2% | – | – |
| Cc1ccc(CN2CCCC(c3nn(-c4ccc(Cl)cc4)c(=O)[nH]3)C2)cc1 (stereo not drawn) | – | inconclusive: 50.1 µM [inhibitor, partial curve, poor fit] | – |
| COc1ccc(CC(=O)NC2CCN(c3ccnc4ccnn34)C2)cc1 (stereo not drawn) | – | inconclusive: 39.8 µM [inhibitor, partial curve, poor fit] | – |
